Measured values: the supplement of paper PMC3334620
In all, about 33,000 sequences were measured (“E-score (-0.5 to 0.5)”: median about -0.041, highest 2% from about 0.37 on). Some of the results follow.

biological target: T1, Ecm22 (UniProt Q05958); assay: PBM E-score (8-mer binding enrichment) (E-score (-0.5 to 0.5)); higher = stronger / more preferred TF binding; most listed sequences are background and not binding sites; details: protein concentration: 200 nM; construct: GST-full length
T1 sequence: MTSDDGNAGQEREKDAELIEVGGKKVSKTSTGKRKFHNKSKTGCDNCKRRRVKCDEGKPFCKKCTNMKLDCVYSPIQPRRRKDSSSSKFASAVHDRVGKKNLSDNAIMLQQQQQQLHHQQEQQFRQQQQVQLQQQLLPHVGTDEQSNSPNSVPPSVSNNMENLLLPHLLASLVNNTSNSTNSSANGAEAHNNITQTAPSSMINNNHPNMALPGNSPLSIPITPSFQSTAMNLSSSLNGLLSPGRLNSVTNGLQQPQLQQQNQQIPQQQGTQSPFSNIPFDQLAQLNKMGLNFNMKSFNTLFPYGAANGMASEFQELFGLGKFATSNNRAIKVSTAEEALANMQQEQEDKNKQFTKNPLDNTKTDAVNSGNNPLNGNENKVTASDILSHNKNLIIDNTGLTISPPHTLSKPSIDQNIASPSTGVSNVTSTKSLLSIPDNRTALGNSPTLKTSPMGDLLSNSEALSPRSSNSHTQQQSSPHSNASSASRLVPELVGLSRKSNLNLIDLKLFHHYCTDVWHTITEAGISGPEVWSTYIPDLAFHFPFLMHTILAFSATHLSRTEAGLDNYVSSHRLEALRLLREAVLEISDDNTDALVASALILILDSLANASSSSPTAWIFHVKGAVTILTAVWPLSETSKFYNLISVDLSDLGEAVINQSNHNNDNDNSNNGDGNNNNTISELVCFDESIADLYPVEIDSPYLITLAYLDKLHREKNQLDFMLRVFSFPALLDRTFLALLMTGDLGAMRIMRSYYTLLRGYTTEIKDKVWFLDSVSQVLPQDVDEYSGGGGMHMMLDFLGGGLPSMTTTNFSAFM
Method in brief: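 The E-score, a modified Wilcoxon-Mann-Whitney statistic, was computed by the Universal PBM Analysis Suite for every ungapped eight-base word pooled with its reverse complement. Scans behind it were normalised with masliner after bound GST-tagged yeast transcription factors were detected with fluorescent anti-GST. The proteins, at about 100-200 nM, had been applied to universal all-10-mer Agilent arrays made double-stranded by primer extension.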

| Sequence | PBM E-score |
| --- | --- |
| ATGGTGAA | -0.0336 |
| AAAACTAA | 0.0384 |
| CTGATGCA | -0.176 |
| ATGAATCC | -0.00732 |
| CGCATCCC | -0.0314 |
| CTCATATA | -0.0079 |
| GTTAAGTA | -0.114 |
| AATATCGA | -0.144 |
| CGCCGGTA | 0.0215 |
| ACGGGCCT | 0.0347 |
| CACGGGAG | -0.0747 |
| CAGCCGAA | -0.0172 |
| AAACTATT | 0.016 |
| GATCCGGC | -0.0487 |
| CGCGAAAC | 0.107 |
| CGTACGTA | 0.367 |
| AGCGCAGA | -0.0942 |
| TAAAAAAA | -0.134 |
| ACTGTACA | 0.0405 |
| GGTTGAGA | -0.262 |
| ACTTCTAC | -0.0305 |
| TATCTGGA | -0.182 |
| AGCGTGTC | -0.146 |
| CACGCCGC | -0.0505 |
| CGCCGACA | -0.0663 |

| Sequence | PBM E-score |
| --- | --- |
| ATTCCTAG | -0.229 |
| CGGTGTGC | -0.0703 |
| ACGGCTTG | 0.00028 |
| CAGCCAAC | -0.133 |
| CTATATAA | -0.102 |
| AGCGGTAT | 0.0733 |
| AATATTCT | -0.0746 |
| CAGAACTG | 0.132 |
| CGGACCCA | -0.0301 |
| AACGTGAG | -0.12 |
| AAGGCAGG | -0.371 |
| GTGCATCA | -0.024 |
| GGCAGCTA | -0.0914 |
| AGAGCGTC | 0.0691 |
| AGGTCAAT | -0.0803 |
| CCAACCCA | -0.36 |
| ATTCAGGC | 0.062 |
| CCACGGTC | -0.118 |
| ACGACCAT | 0.322 |
| AAAGGCGA | 0.0319 |
| GGCGCTAC | -0.0339 |
| ACACGGTG | -0.0453 |
| CGGATCGA | 0.219 |
| GCGGACTA | -0.0818 |
| CGAATTAG | 0.0708 |

| Sequence | PBM E-score |
| --- | --- |
| CACCTTCG | 0.0454 |
| GGGTATAC | 0.15 |
| TCGCTGAA | 0.188 |
| AACGTGCG | 0.201 |
| ATAAGTGG | 0.0401 |
| CGCACCAC | 0.0793 |
| CTACTTCA | -0.158 |
| AGGCAACA | -0.307 |
| TCGCACAA | 0.262 |
| AGGCGGAA | -0.131 |
| GGGCGGTA | -0.161 |
| ATGTAGGC | -0.193 |
| ATACATTG | 0.021 |
| CCTCTACG | 0.256 |
| GCAGATCA | -0.171 |
| AAACCAAC | -0.201 |
| ATTATAGG | -0.101 |
| ATCGTATA | 0.488 |
| AATTACAC | -0.0453 |
| CAAGTGCA | -0.24 |
| CAATAAGG | -0.296 |
| AAACCTAT | -0.218 |
| GCAATTAC | -0.144 |
| TAATCAAA | -0.0825 |
| ATGGCGGC | -0.231 |

| Sequence | PBM E-score |
| --- | --- |
| ACTGACCA | -0.0999 |
| ACACCAAT | 0.0146 |
| ACCAGGAT | -0.0234 |
| CCTCCGGC | -0.0657 |
| CTATATGA | 0.173 |
| TCCTGACA | -0.0171 |
| TCAGCTCA | -0.0482 |
| CACTGACA | 0.139 |
| CATCAATG | -0.153 |
| CTGTTCAC | -0.0303 |
| CTCCGGTA | 0.0575 |
| AAAGTCTG | -0.284 |
| ACAGGCAG | -0.0137 |
| ACACCTGA | 0.079 |
| GTTAGCGA | 0.248 |
| AAGGAATC | -0.0813 |
| ATTACCCG | -0.0442 |
| ATGCTTCC | -0.0277 |
| ACACGGCA | 0.108 |
| CTCCGCTC | 0.0963 |
| AAGACGGT | -0.233 |
| CCGGTGGC | -0.135 |
| AGCCTCAA | -0.184 |
| GCCTTCTA | -0.137 |
| ACCTTATC | -0.0716 |

| Sequence | PBM E-score |
| --- | --- |
| CCCACCCG | 0.0357 |
| AACTTCGT | 0.287 |
| ACCCAATG | -0.323 |
| ACGGCATC | 0.135 |
| ATGTACTC | -0.0519 |
| GTTTTTGA | -0.0446 |
| GTTGTGCA | -0.00507 |
| CCGGTATA | 0.199 |
| ACGGATCA | 0.157 |
| AAATTCTA | 0.0181 |
| AGTCAATA | -0.016 |
| AGCGGCGA | 0.0628 |
| GCTTTGCC | -0.175 |
| GCTTCCAA | -0.133 |
| CCCGCACA | 0.139 |
| AAGGTTGT | -0.276 |
| TTAACTAA | 0.0931 |
| AACCTGGG | -0.247 |
| TCCCCACA | -0.207 |
| GCAAAGTA | 0.0957 |
| GGGTTCTA | -0.256 |
| AAAGCTTG | 0.118 |
| AAAAGCCC | -0.29 |
| AGTGAGGA | 0.00222 |
| CCTTACCC | -0.164 |

| Sequence | PBM E-score |
| --- | --- |
| CTTCTATA | -0.00732 |
| AATACCCT | -0.0191 |
| CATACGAG | 0.481 |
| GCGCAGGA | -0.153 |
| ACCTCAAT | -0.112 |
| AAGTTTCG | 0.0964 |
| AAGTGATA | -0.118 |
| TAATTGGA | -0.059 |
| AGTACTTG | 0.152 |
| CGATCAGA | 0.014 |
| CGAATATA | 0.179 |
| AACATGTT | 0.0291 |
| CACGGAGA | -0.134 |
| CTCCAGGA | -0.147 |
| GCCGATAA | -0.06 |
| CGGGCACA | -0.0619 |
| CGACCGCC | 0.137 |
| TAAAATCA | 0.0531 |
| CGGGGCGC | -0.00374 |
| ACGGCGGG | 0.051 |
| GGAGCAAA | -0.116 |
| CAAGCCTC | -0.0576 |
| TTCAGAAA | -0.132 |
| ATGTAATG | -0.0662 |
| AACAGGCC | -0.269 |

| Sequence | PBM E-score |
| --- | --- |
| CCAAACCC | -0.228 |
| GTTTCCAA | 0.0294 |
| GGGTCAAA | 0.0713 |
| AGTCCCTA | -0.281 |
| ATAGGATA | -0.101 |
| ATGCGCAG | -0.118 |
| ACGTATAG | 0.403 |
| AACTTACC | -0.0146 |
| GACTAAAA | -0.124 |
| CTAACAAC | 0.0246 |
| GATCGCTA | 0.11 |
| GCACTGGA | -0.0491 |
| AAAGTAGA | -0.156 |
| GCCAATCC | -0.0196 |
| CTCAGGGA | -0.198 |
| CTCGACGA | 0.0457 |
| CCTGCTCG | 0.27 |
| ATGCGGCA | -0.0733 |
| AAACGCAT | 0.0604 |
| TATGATAA | 0.126 |
| GTCTAATA | -0.0379 |
| TCGGGAAA | 0.193 |
